The values below come from the supplement of paper PMC10037445.

The test system of test [1] is RAW-Dual. The test is described as follows: NF-kB SEAP reporter activity, fold change vs agonist alone; higher = enhanced NF-kB activity. The method, boiled down: (§1)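 RAW-Dual macrophages were seeded in DMEM at 50,000 cells/well in 384-well plates, given 50 nL of library stock by pin tool, and given a PRR agonist 1 h later. Plates were held at 37 °C, 5% CO2 for 20 hours, after which supernatant was read for IRF by QuantiLuc luminescence and for NF-κB by QuantiBlue absorbance at 620 nm. Reporter activity is expressed as fold change over wells that received agonist alone. A well was called cytotoxic when IncuCyte confluency fell below 70% of agonist controls in both mask sets.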

In test [2] the test system is RAW-Dual. Put plainly: NF-kB SEAP reporter activity, fold change vs agonist alone; cytotoxicity flag (confluency mask): not cytotoxic; higher = enhanced NF-kB activity. A digest of the protocol: as §1
Test [3] deals with RAW-Dual. Put plainly: NF-kB SEAP reporter activity, fold change vs agonist alone; cytotoxicity flag (confluency mask): cytotoxic (confluency <70% of control); higher = enhanced NF-kB activity. A digest of the protocol:
as §1

Where [4] appears, read: library stock concentration (final ~1000-fold dilution): 10 mM, cytotoxicity flag (confluency mask): not cytotoxic, agonist: Imiquimod (TLR7) […].
Setting [5] is: library stock concentration (final ~1000-fold dilution): 10 mM, cytotoxicity flag (confluency mask): not cytotoxic, agonist: MPLA (TLR4) […].
Setting [6] is: agonist: ODN 1826 (TLR9) 0.5 ug/mL.
Setting [7] is: agonist: Pam2CSK4 (TLR2/6) 0.1 ug/mL.
Setting [8] is: agonist: Pam3CSK4 (TLR2/1) 0.1 ug/mL.

The full ranking holds about 2,900 compounds; the median of “NF-kB SEAP reporter activity, fold change vs agonist alone” is about 0.99, and the highest 2% start at about 2.6. This is one part of the list.

As to `CC(=O)Nc1cccc2c1c(Sc1ccc(Cl)cc1)c(C)n2CC(=O)O`, the “NF-kB SEAP reporter activity” value came out at 0.95 in the test on RAW-Dual [1] (setting [4]) and 1.04 with RAW-Dual [1] (setting [5]).
Regarding `O=C(Nc1ccc(OC(F)(F)F)cc1)c1sccc1NCc1ccnc2ccccc12` (library stock concentration (final ~1000-fold dilution): 10 mM), the “NF-kB SEAP reporter activity” value with RAW-Dual [2] (agonist: LPS (TLR4) 0.1 ug/mL) was determined as 2.86.
Regarding `CCCCCCCCCCCCCCCCCCOP(=O)([O-])OC1CC[N+](C)(C)CC1` (library stock concentration (final ~1000-fold dilution): 10 mM water), the “NF-kB SEAP reporter activity” value with RAW-Dual [2] (agonist: LPS (TLR4) 0.1 ug/mL) was 1.3; in the test with RAW-Dual [2] (setting [6]) it was 1.42; in the test on RAW-Dual [2] (setting [7]), 0.859; in the test on RAW-Dual [2] (setting [8]) it was 1.17.
As for `CCCCCCCCCCCCCCCCCCOP(=O)([O-])OC1CC[N+](C)(C)CC1`, the “NF-kB SEAP reporter activity” value in the test with RAW-Dual [1] (library stock concentration (final ~1000-fold dilution): 10 mM water, cytotoxicity flag (confluency mask): not cytotoxic, agonist: Imiquimod (TLR7) […]) was 1.01; in the test on RAW-Dual [1] (library stock concentration (final ~1000-fold dilution): 10 mM water, cytotoxicity flag (confluency mask): not cytotoxic, agonist: MPLA (TLR4) […]), 1.27.
For `COS(=O)(=O)[O-].C[N+]1(C)CCC(=C(c2ccccc2)c2ccccc2)CC1`, the “NF-kB SEAP reporter activity” value stood at 1.05 with RAW-Dual [1] (setting [4]) and 1.12 in the test on RAW-Dual [1] (setting [5]).
With `COS(=O)(=O)[O-].C[N+]1(C)CCC(=C(c2ccccc2)c2ccccc2)CC1` (library stock concentration (final ~1000-fold dilution): 10 mM), the “NF-kB SEAP reporter activity” value in the test with RAW-Dual [2] (agonist: LPS (TLR4) 0.1 ug/mL) was found to be 0.962; with RAW-Dual [2] (setting [6]), 1.05; in the test on RAW-Dual [2] (setting [7]), 0.968; in the test with RAW-Dual [2] (setting [8]), 1.23.
For the molecule `COC(=O)C(c1ccccc1Cl)N1CCc2sccc2C1.O=S(=O)(O)O` (centres undefined) (library stock concentration (final ~1000-fold dilution): 10 mM), the “NF-kB SEAP reporter activity” value turned out to be 0.952 in the test on RAW-Dual [2] (agonist: LPS (TLR4) 0.1 ug/mL), 0.705 in the test with RAW-Dual [2] (setting [6]), 0.949 in the test on RAW-Dual [2] (setting [7]) and 0.784 with RAW-Dual [2] (setting [8]).
On to `COC(=O)C(c1ccccc1Cl)N1CCc2sccc2C1.O=S(=O)(O)O` (centres undefined), for which the “NF-kB SEAP reporter activity” value came to 0.925 in the test with RAW-Dual [1] (setting [4]) and 1.1 in the test with RAW-Dual [1] (setting [5]).
Take `CCc1cnn2c(NCc3ccc[n+]([O-])c3)cc(N3CCCCC3CCO)nc12` (centres undefined): the “NF-kB SEAP reporter activity” value in the test on RAW-Dual [1] (library stock concentration (final ~1000-fold dilution): 10 mM, cytotoxicity flag (confluency mask): cytotoxic (confluency <70% of control), agonist: Imiquimod (TLR7) […]) was found to be 0.308; in the test on RAW-Dual [1] (library stock concentration (final ~1000-fold dilution): 10 mM, cytotoxicity flag (confluency mask): cytotoxic (confluency <70% of control), agonist: MPLA (TLR4) […]) it was 0.225.
For the molecule `CCc1cnn2c(NCc3ccc[n+]([O-])c3)cc(N3CCCCC3CCO)nc12` (centres undefined) (library stock concentration (final ~1000-fold dilution): 10 mM), the “NF-kB SEAP reporter activity” value worked out at 0.193 in the test on RAW-Dual [3] (agonist: LPS (TLR4) 0.1 ug/mL), 0.198 in the test on RAW-Dual [3] (setting [6]), 0.0843 in the test on RAW-Dual [3] (setting [7]) and 0.182 in the test with RAW-Dual [3] (setting [8]).
`COC(=O)c1cc(O)c(O)c(O)c1`: the entries for the “NF-kB SEAP reporter activity” value in the test with RAW-Dual [1] (setting [4]) and in the test on RAW-Dual [1] (setting [5]) were 0.784 and 1.03, respectively.
Turning to `COC(=O)c1cc(O)c(O)c(O)c1` (library stock concentration (final ~1000-fold dilution): 10 mM), the “NF-kB SEAP reporter activity” value with RAW-Dual [2] (agonist: LPS (TLR4) 0.1 ug/mL) stood at 0.987; in the test on RAW-Dual [2] (setting [6]), 0.772; in the test on RAW-Dual [2] (setting [7]), 0.801; with RAW-Dual [2] (setting [8]) it was 0.761.
For the molecule `N#Cc1ccc(-c2c(-c3ncn[nH]3)sc(N3CCOCC3)c2C#N)c(F)c1`, the “NF-kB SEAP reporter activity” value with RAW-Dual [1] (setting [4]) turned out to be 0.562; with RAW-Dual [1] (setting [5]), 1.94.
`N#Cc1ccc(-c2c(-c3ncn[nH]3)sc(N3CCOCC3)c2C#N)c(F)c1` (library stock concentration (final ~1000-fold dilution): 10 mM): the “NF-kB SEAP reporter activity” value came out at 2.39 in the test on RAW-Dual [2] (agonist: LPS (TLR4) 0.1 ug/mL), 0.443 in the test with RAW-Dual [2] (setting [6]), 0.61 with RAW-Dual [2] (setting [7]) and 1.06 in the test with RAW-Dual [2] (setting [8]).
